In the supplement of paper PMC4604168 (melanoma cell lines):
The list shows a part of the results. Many values rest on one well or one pass, so single values are uncertain.

test system: A375; assay: cell count relative to DMSO control; melanoma cells; higher = more viable cells; conditions: library dose: standard library concentration; 72 h
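Also: cells treated in 1,536-well plates, then fixed and DAPI-stained, with nuclei counted from automated high-throughput microscope images.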

For `C[C@]1(O)C[C@@H](c2nc(-c3ccc4ccc(-c5ccccc5)nc4c3)c3c(N)nccn32)C1` + NC(=O)Nc1cc(-c2cccc(F)c2)sc1C(=O)N[C@H]1CCCNC1 [AZD7762] (first compound 2 µM, partner dose 0.1 µM), which cell count is on record?
Its cell count is 46%.

For `COc1cc([C@@H]2c3cc4c(cc3[C@@H](O[C@@H]3O[C@@H]5CO[C@@H](C)O[C@H]5[C@H](O)[C@H]3O)[C@H]3COC(=O)[C@H]23)OCO4)cc(OC)c1O` [etoposide] + OCc1c[nH]c2ccccc12 [Indole-3-carbinol] (first compound 0.1 µM, partner dose 4 µM), which cell count is on record?
The cell count was 66.2%.

`Cn1cnc2c(F)c(Nc3ccc(Br)cc3Cl)c(C(=O)NOCCO)cc21` [selumetinib] + COc1cc2c(Oc3ccc4[nH]c(C)cc4c3F)ncnc2cc1OCCCN1CCCC1 [cediranib] (first compound 0.075 µM, partner dose 2 µM) was tested. Which cell count did it give?
The cell count was 82%.

How did the cell count turn out when `CCN(CC)CCNC(=O)c1c(C)[nH]c(/C=C2\C(=O)Nc3ccc(F)cc32)c1C` [sunitinib] + CS(=O)(=O)CCNCc1ccc(-c2ccc3ncnc(Nc4ccc(OCc5cccc(F)c5)c(Cl)c4)c3c2)o1 [lapatinib] (first compound 2 µM, partner dose 4 µM) was run?
Its cell count is 129%.

Which cell count does the source give for `C[C@]1(O)C[C@@H](c2nc(-c3ccc4ccc(-c5ccccc5)nc4c3)c3c(N)nccn32)C1` + C=C(c1ccc(C(=O)O)cc1)c1cc2c(cc1C)C(C)(C)CCC2(C)C [Bexarotene] (first compound 2 µM, partner dose 10 µM) here?
Its cell count is 83.3%.

Which cell count does the source give for `Cn1cnc2c(F)c(Nc3ccc(Br)cc3Cl)c(C(=O)NOCCO)cc21` [selumetinib] + CNC(=O)c1cc(Oc2ccc(NC(=O)Nc3ccc(Cl)c(C(F)(F)F)c3)cc2)ccn1 [sorafenib] (first compound 0.075 µM, partner dose 2 µM) here?
Its cell count is 90.2%.

`COc1cc([C@@H]2c3cc4c(cc3[C@@H](O[C@@H]3O[C@@H]5CO[C@@H](C)O[C@H]5[C@H](O)[C@H]3O)[C@H]3COC(=O)[C@H]23)OCO4)cc(OC)c1O` [etoposide] + COc1cc(Nc2ncc(F)c(Nc3ccc4c(n3)NC(=O)C(C)(C)O4)n2)cc(OC)c1OC [Tamatinib] (first compound 0.1 µM, partner dose 2 µM) was tested. Which cell count did it give?
Its cell count is 85.1%.

How did the cell count turn out when `C[C@]1(O)C[C@@H](c2nc(-c3ccc4ccc(-c5ccccc5)nc4c3)c3c(N)nccn32)C1` + O=C(CCCCCCC(=O)Nc1ccccc1)NO [vorinostat] (first compound 2 µM, partner dose 0.4 µM) was run?
Its cell count is 77.7%.

With `CCN(CC)CCNC(=O)c1c(C)[nH]c(/C=C2\C(=O)Nc3ccc(F)cc32)c1C` [sunitinib] + CN(C)S(=O)(=O)c1ccc2c(c1)/C(=C/c1cc3c([nH]1)CCCC3)C(=O)N2 [SU6656] (first compound 2 µM, partner dose 2 µM) as the compound, how does the cell count read?
The cell count was 140%.

With `Cn1cnc2c(F)c(Nc3ccc(Br)cc3Cl)c(C(=O)NOCCO)cc21` [selumetinib] + Cc1cc(N2CCOCC2)cc2[nH]c(-c3c(NC[C@@H](O)c4cccc(Cl)c4)cc[nH]c3=O)nc12 [BMS536924] (first compound 0.075 µM, partner dose 1 µM) as the compound, how does the cell count read?
Its cell count is 96.2%.

For `COc1cc([C@@H]2c3cc4c(cc3[C@@H](O[C@@H]3O[C@@H]5CO[C@@H](C)O[C@H]5[C@H](O)[C@H]3O)[C@H]3COC(=O)[C@H]23)OCO4)cc(OC)c1O` [etoposide] + O=C(/C=C/c1cccnc1)NCCCCC1CCN(C(=O)c2ccccc2)CC1 [FK866] (first compound 0.1 µM, partner dose 0.05 µM), which cell count is on record?
Its cell count is 81.1%.

For `Cn1cnc2c(F)c(Nc3ccc(Br)cc3Cl)c(C(=O)NOCCO)cc21` [selumetinib] + Cc1cc(Nc2cc(N3CCN(C)CC3)nc(/C=C/c3ccccc3)n2)n[nH]1 [ENMD2076] (first compound 0.075 µM, partner dose 0.2 µM), which cell count is on record?
Its cell count is 126%.

For `COc1cc([C@@H]2c3cc4c(cc3[C@@H](O[C@@H]3O[C@@H]5CO[C@@H](C)O[C@H]5[C@H](O)[C@H]3O)[C@H]3COC(=O)[C@H]23)OCO4)cc(OC)c1O` [etoposide] + O=c1[nH]nc(Sc2ncc([N+](=O)[O-])s2)n1-c1ccc2c(c1)OCCO2 [BI78D3] (first compound 0.1 µM, partner dose 1 µM), which cell count is on record?
The cell count was 78.2%.
